Screen size: about 52,000 compounds; about 4,300 (8.3%) were called active. Rule as the data show it: active = survival mostly below about 52% (no sharp cut-off); inactive = mostly above about 56%. The list shows a part of the results.

This assay relates to DeltatarO mutant. In words: S. aureus survival, RN4220 and DeltatarO strains – OD600, teichoic acid synthesis inhibitors, primary screen (AID 463173). Conditions: S. aureus RN4220 wild type/DeltatarO growth, OD600, 18 h, active compounds read low, screened at 18.75 µg/mL (by protocol).
On to `O=C(Nc1ccc(OC(F)(F)F)cc1)c1cc2ccccn2n1`, for which the survival is inactive: 74%.

On to `CCCCn1cc2c(c1-c1ccc(Cl)cc1)c(=O)n(C)c(=O)n2C`, for which the survival was inactive: 76%.

In the case of `Cc1cc(C)cc(NS(=O)(=O)c2cc3c(cc2C)NC(=O)CO3)c1`, the survival is inactive: 89%.

For `Cc1ccc(-n2ncc(C(=O)NCc3ccco3)c2C2CCN(C(=O)OC(C)(C)C)CC2)c(C)c1`, the survival was active: 25%.

For the molecule `Cc1ccc(-n2ncc3c(NC4CCCCCC4)ncnc32)cc1Cl`, the survival is inactive: 66%.

With `CCOC(=O)C1=C(C)N=C2SCCC(=O)N2C1c1ccc(OCc2ccccc2)cc1` (configuration not stated), the survival is inactive: 122%.

For `O=C(CSc1nnc(-c2cccs2)o1)N1c2ccccc2CCc2ccccc21`, the survival was inactive: 70%.

Regarding `Cc1nonc1NC(=O)CNC1CCCCC1`, the survival is inactive: 79%.

For the molecule `COc1ccc(S(=O)(=O)NCCc2csc(-c3ccc(F)cc3)n2)cc1F`, the survival is inactive: 91%.

As to `CCCCN(CCCNC(=O)c1cc(Nc2ccc(OC)c(OC)c2)nc2ccccc12)Cc1ccccc1`, the survival was inactive: 68%.

As to `CCN(CC)C(=O)CSc1nc(C)cc(=O)[nH]1`, the survival was inactive: 94%.

With `Cc1occc1-c1nnc(SCC(=O)N2CCCC(C)C2)n1CC1CCCO1` (configuration not stated), the survival is inactive: 80%.

For `COC(=O)c1c(NC(=O)CCCOc2cccc(C)c2)sc2c1C(C(=O)OC)CC2` (configuration not stated), the survival was active: 0%.

Regarding `CCN(CC)C(=O)Cn1c(=O)n(Cc2ccc(C(=O)NCCc3ccc(OC)c(OC)c3)cc2)c(=O)c2ccccc21`, the survival is inactive: 104%.

On to `CCc1ccc(CN(Cc2cn[nH]c2-c2ccc(OC)cc2)C(=O)Nc2cc(Cl)ccc2OC)cc1`, for which the survival was inactive: 58%.

On to `CC(=O)c1cccc(NC(=O)C2CCN(S(=O)(=O)c3ccc4c(c3)oc(=O)n4C)CC2)c1`, for which the survival was inactive: 99%.

For the molecule `O=c1[nH]c2cc3c(cc2cc1C(c1nnnn1C1CCCC1)N1CCc2ccccc21)OCCO3` (configuration not stated), the survival is inactive: 64%.

As for `CCC(SC1=NCCS1)C(=O)Nc1ccccc1OC` (configuration not stated), the survival was inactive: 86%.

With `CCOC(=O)c1cccc(NC(=O)CCn2c(-c3ccc(F)cc3)cc(C(=O)OCC)c2C)c1`, the survival is inactive: 76%.

For `O=C(CSCc1ccccc1Cl)N1CCN(c2ccc(Cl)cc2)CC1`, the survival is inactive: 92%.

On to `COc1c(C)cccc1C(=O)Nc1cccc2ccc(C)nc12`, for which the survival is active: -1%.

For `CCCS(=O)(=O)N1CC(=O)N(c2ccc(Cl)cc2C)C(C)(C(=O)NC2CCCC2)C1` (configuration not stated), the survival is inactive: 122%.

As to `O=C1CN=C(Nc2ccccc2Cl)N1Cc1ccccc1`, the survival was inactive: 110%.

In the case of `O=C(CSc1nc2sc3c(c2c(=O)[nH]1)CCCC3)NCc1cccs1`, the survival is inactive: 95%.

Consider `COc1cc2nc(NC(=O)c3ccc(S(=O)(=O)N4CCOCC4)cc3)sc2cc1OC`, for which the survival was inactive: 92%.

As for `CC(=O)N1CCN(c2ccccc2F)CC1`, the survival was inactive: 107%.

As for `Cc1ccc(OC(=O)c2ccc3snnc3c2)cc1`, the survival is inactive: 115%.

Turning to `COc1ccc(NC(=O)CSC2=Nc3ccccc3C3=NC(CCC(=O)NC4CCCCC4)C(=O)N23)cc1` (configuration not stated), the survival was inactive: 74%.

Consider `CCOc1cc(CNC(=O)c2ccc3c(c2)NC(=O)C2CCCCN32)cc(OCC)c1OCC` (configuration not stated), for which the survival is inactive: 107%.

Consider `Cc1ccc(Cl)cc1N1CCN(C(=O)c2ccc3c(c2)N(Cc2ccc(F)cc2)CCS3)CC1`, for which the survival was inactive: 73%.

Regarding `Nc1nn(-c2ccccc2)nc1NC=O`, the survival is inactive: 95%.

With `COc1ccc(CN(C(=O)CSc2nnc(-c3ccc(OC)c(OC)c3)o2)c2ccc(F)cc2)cc1`, the survival is inactive: 101%.

On to `Cc1cn2c(=O)cc(COC(=O)c3ccc(NC(=O)COc4ccccc4F)cc3)nc2s1`, for which the survival was inactive: 89%.

For `CCOc1ccccc1OCCCn1c(-c2ccc(Cl)cc2)nc2ccccc2c1=O`, the survival was inactive: 42%.

For the molecule `Cc1cc(C)cc(-n2c(-c3ccccc3)c(C)n3c4c(=O)n(C)c(=O)n(C)c4nc23)c1`, the survival is inactive: 88%.

As for `CC1CCCCN1S(=O)(=O)c1ccc(S(=O)(=O)NCc2ccc(F)cc2)cc1` (configuration not stated), the survival was inactive: 88%.

For the molecule `COc1ccc(Cn2ccn(Cc3cccc(OC)c3)c(=O)c2=O)cc1`, the survival was active: 46%.

As for `Cc1cccc(NC(=O)N2CC(=O)Nc3sc4c(c3C2c2ccccc2)CCCC4)c1C` (configuration not stated), the survival was inactive: 71%.

With `Cc1ccccc1CN1CCC(CNC(=O)c2c(C)oc3ncnc(N4CCCCC4)c23)CC1`, the survival was inactive: 82%.

`CCN1C(=O)c2ccccc2S(=O)c2ccc(C(=O)N3CCN(c4cc(Cl)ccc4C)CC3)cc21` (configuration not stated): the survival is inactive: 64%.

Turning to `CCC(Sc1nc(-c2ccccc2F)nc2c1Cc1c(CO)cnc(C)c1O2)C(=O)Nc1cc(C)ccc1C` (configuration not stated), the survival was inactive: 63%.

Take `CCOc1ccc(CCNC(=O)C2=C(C)C(=O)OC23CCCCC3)cc1`: the survival is inactive: 89%.

`Fc1ccc(-c2noc3ncnc(NCc4ccc(Cl)cc4)c23)cc1`: the survival is inactive: 84%.

Consider `O=C(CCn1c(=O)c2cccn2c2cccnc21)NCc1ccc(F)cc1`, for which the survival was inactive: 87%.

For `CN(Cc1ccccc1)C(=O)c1ccc2c(c1)N(Cc1ccccc1Cl)C(=O)c1ccccc1S2`, the survival is inactive: 78%.

`COc1cc(C(=O)NCC(c2cccs2)S(=O)(=O)c2cccs2)cc(OC)c1OC` (configuration not stated): the survival was inactive: 94%.

For `Cc1cc(=O)n(CC(=O)N2CCN(c3ccccc3F)CC2)c2c1c(C)nn2C`, the survival was inactive: 69%.

Regarding `CCc1ccccc1NC(=O)c1cnc(N2CCCCC2)c2ccccc12`, the survival is inactive: 96%.

`CCOc1ccc(CCNC(=O)Cn2nc(CC)n3c(cc4ccccc43)c2=O)cc1`: the survival was inactive: 99%.

Regarding `COc1ccc(-c2c3c(=O)n(C)c(=O)n(C)c3c3n2-c2ccccc2NC3c2ccco2)cc1` (configuration not stated), the survival was inactive: 50%.

`Cc1ccc(S(=O)(=O)N(C)c2c(C)ccc(S(=O)(=O)n3nc(C)cc3C)c2C)cc1`: the survival is inactive: 96%.

`CCOC(=O)c1[nH]c(C)c(CCC(=O)Nc2cc(C)ccc2OC)c1C`: the survival is inactive: 89%.

Take `O=C(COc1ccccc1)Nc1ccc2nc(SCCOc3ccccc3)sc2c1`: the survival is inactive: 85%.

As for `CCCc1nnc(SCC(=O)N2CCCC2)n1CCOC`, the survival was inactive: 87%.

For `CCOC(=O)c1c(C)[nH]c(C)c1S(=O)(=O)N(C)CC(=O)Nc1ccc(C)cc1C`, the survival was inactive: 95%.

Consider `Cc1ccc(NC(=O)Cn2c(=O)n(CC3CCCO3)c(=O)c3ccccc32)cc1` (configuration not stated), for which the survival is inactive: 102%.

For the molecule `Cc1cc(C)c2oc(-c3cccc(NC(=O)COc4ccc([N+](=O)[O-])cc4)c3)nc2c1`, the survival was inactive: 63%.

Regarding `Cc1ccc(Cl)cc1N1CCN(C(=O)c2ccc(CS(=O)(=O)c3ccccc3C)o2)CC1`, the survival is inactive: 50%.

Regarding `COc1cc(C2CC(=O)Oc3c2c(=O)n(C)c2ccccc32)ccc1O` (configuration not stated), the survival is inactive: 58%.

In the case of `COc1ccc(C(=O)NC2(C(F)(F)F)C(=O)Nc3c2c(=O)[nH]c(=O)n3CCc2ccc(OC)c(OC)c2)cc1` (configuration not stated), the survival is inactive: 79%.

Consider `O=C(CS(=O)(=O)c1cccc2nsnc12)N1CCN(c2ccc(F)cc2)CC1`, for which the survival is inactive: 69%.

Turning to `CC(=O)c1ccc(NC(=O)Cn2c(=O)nc(-c3ccccc3)c3ccccc32)cc1`, the survival is inactive: 101%.

With `COc1cc(NC(=O)COCc2cc(-c3ccc4c(c3)OCO4)on2)c(OC)cc1Cl`, the survival was inactive: 103%.

As to `CCOc1ccc(C(=O)c2cn(CC(=O)Nc3ccc(C)c(Cl)c3)c3ccc(OCC)cc3c2=O)cc1`, the survival is inactive: 72%.

`CCCCN(CC)CCCNC(=O)c1ccc2c(c1)N(Cc1ccc(C)cc1)C(=O)c1ccccc1S2`: the survival was inactive: 94%.

For `CCCCC(=O)OCc1cc(=O)n2nc(C3CC3)sc2n1`, the survival was inactive: 102%.

Take `O=C(NC1(C(F)(F)F)N=C(c2ccccc2)N(Cc2ccccc2)C1=O)c1ccc(F)cc1` (configuration not stated): the survival is inactive: 67%.

`Cc1cc(-c2ccc(C)c(S(=O)(=O)Nc3ccc(C)c(N(C)C)c3)c2)on1`: the survival was inactive: 99%.

For the molecule `CCOc1ccc(CCNC(=O)c2cc3n(n2)CCCN(Cc2ccc(C)cc2)C3=O)cc1OCC`, the survival is inactive: 112%.

In the case of `COc1ccc(-c2nnn(CC(=O)N(Cc3ccco3)C(C(=O)NCC3CCCO3)c3ccco3)n2)cc1` (configuration not stated), the survival was inactive: 89%.

Consider `Cc1nnc(N2CCCC(C(=O)Nc3cc(F)ccc3F)C2)c2nn(-c3ccccc3)c(C)c12` (configuration not stated), for which the survival was inactive: 83%.

For `CCCN1CCN(c2ncnc3sc(C(=O)Nc4ccc(OC(F)(F)F)cc4)c(C)c23)CC1`, the survival is inactive: 75%.

Regarding `CC1CCN(c2nc3ccccc3nc2SCC(=O)Nc2ccccc2C(C)C)CC1`, the survival was active: -1%.

Consider `O=c1c2sc3ccccc3c2n(Cc2cccc(Cl)c2)c(=O)n1Cc1ccc(F)cc1`, for which the survival is active: 68%.

For `Cc1ccccc1CN1C(=O)C(O)(c2c[nH]c3ccccc23)c2cc(Cl)ccc21` (configuration not stated), the survival is active: -2%.

On to `COc1cccc(CNC(=O)C2CCCN(c3nn4cc(-c5ccc(C)cc5)nc4s3)C2)c1` (configuration not stated), for which the survival was inactive: 95%.

On to `O=C(c1ccc2c(c1)N(Cc1ccccc1)C(=O)c1ccccc1S2(=O)=O)N1CCC(Cc2ccccc2)CC1`, for which the survival is inactive: 87%.

As for `Cc1cc(C)c(NC(=O)Cn2nnc3sc4c(c3c2=O)CCC(C(C)(C)C)C4)c(C)c1` (configuration not stated), the survival is inactive: 49%.

Take `COc1cc(C2c3c(-c4ccccc4O)n[nH]c3C(=O)N2Cc2ccncc2)cc(OC)c1OC` (configuration not stated): the survival is inactive: 82%.

For `N#Cc1c(NC(=O)c2ccco2)sc2c1CCCC2`, the survival was inactive: 98%.

For the molecule `CCCCN1C(C(=O)c2ccccc2)=C(OC(=O)CC)c2ccccc2S1(=O)=O`, the survival is active: -4%.

Turning to `Cc1nc2cc3ccccc3cc2c(=O)[nH]1`, the survival is active: 47%.

As for `C/C(=N\NC(=O)C(F)(F)F)c1ccccc1O`, the survival was inactive: 101%.

On to `Cn1cnc(S(=O)(=O)N2CCC(C(=O)Nc3ccc(OC(F)(F)F)cc3)CC2)c1`, for which the survival is inactive: 92%.

As to `CCN(CC)c1cc(NC2CCCCC2)c2c3c(onc13)-c1ccccc1C2=O`, the survival is active: 1%.

Turning to `CC1CCN(S(=O)(=O)c2ccc3c(c2)N(CC(=O)N(C)Cc2ccccc2)C(=O)CO3)CC1`, the survival was inactive: 70%.

Take `COc1ccccc1N1CCN(c2c3c(nc4nncn24)CCC3)CC1`: the survival was inactive: 73%.

For the origin of these results see PubChem BioAssay AID463173 (ICCB-Longwood Screening Facility, Harvard Medical School, 2010).
